Experimental data as given in patent publication US20120283182A1.

Molecular target: 'd' subunit of F1Fo ATP synthase (dF1Fo) (rat) (UniProt P31399)
Assay: cell-based or functional assay

Sequence of UniProt P31399 (P31399 2-161 limits assumed): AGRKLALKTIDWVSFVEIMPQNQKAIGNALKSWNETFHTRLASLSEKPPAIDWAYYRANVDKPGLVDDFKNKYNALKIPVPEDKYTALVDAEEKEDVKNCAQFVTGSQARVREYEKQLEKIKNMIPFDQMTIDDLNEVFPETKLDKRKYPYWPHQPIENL

With “delta protein kinase C (δPKC) (from UniProt P09215 1-673) (enzyme)” the inhibition of basal oligomycin-sensitive F1Fo ATPase activity in NCMs (hypoxia) was 79%.
